Several values for one entry are separate records, joined by “and”; a condition that tells them apart may be missing. Equal entries are not always repeated. Structures can show the parent of a compound that is named as a salt. Hit rate of the full screen: of about 5,800 compounds, about 620 (11%) showed activity.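 The calls were made as follows: active = score above a cut-off or among the top three wells of a plate; in these data no inactive exceeds 0.85.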 The list shows a part of the results, in another mix than the full data.

This assay relates to primary human hepatic stellate cells (donor 1). In words: scaled lipid accumulation score (0 = DMSO-like, 1 = nortriptyline-like); higher = stronger HSC inactivation (lipid re-accumulation), active = hit call of the paper. Conditions: 48 h.
Where [1] appears, read: library stock concentration: 3.33 mM.
The mark [2] stands for this setting: library stock concentration: 10 mM.
Setting [3] is: library stock concentration: 1 mM.

As to `COc1cc(C2Oc3cc([C@H]4Oc5cc(O)cc(O)c5C(=O)[C@@H]4O)ccc3OC2CO)ccc1O` (stereo partly specified) [Silymarin], the “scaled lipid accumulation score” value was inactive: ≤ 0 under setting [1] and inactive: ≤ 0 under setting [2]. For the compound `COc1cc(C2Oc3cc([C@H]4Oc5cc(O)cc(O)c5C(=O)[C@@H]4O)ccc3OC2CO)ccc1O` (stereo partly specified) [Silibinin], the “scaled lipid accumulation score” value reads like this: under setting [1], inactive: ≤ 0; under setting [2], inactive: ≤ 0 and inactive: ≤ -0.027. As for `O=C1Nc2ccc(-c3cccnc3)cc2/C1=C/c1ccc[nH]1` [JAK3 Inhibitor VI], the “scaled lipid accumulation score” value under setting [1] was inactive: ≤ 0. In the case of `O=c1[nH]c2cc(C(F)(F)F)ccc2n1-c1cc(C(F)(F)F)ccc1O`, the “scaled lipid accumulation score” value by setting is: under setting [2], inactive: 0.323; (library stock concentration: 13.8 mM) inactive: 0.046. With `CN(C)CCn1nnnc1SCC1=C(C(=O)O)N2C(=O)[C@@H](NC(=O)Cc3csc(N)n3)[C@H]2SC1` [Cefotiam hydrochloride], the “scaled lipid accumulation score” value was inactive: ≤ 0. As for `N[C@@H](CCCC(=O)O)C(=O)O` [L-2-aminoadipic acid], the “scaled lipid accumulation score” value under setting [2] is inactive: 0.368.

As for `O=c1cc(-c2ccccc2)oc2cc(O)c(O)c(O)c12` [Baicalein], the “scaled lipid accumulation score” value runs as follows: under setting [3], inactive: 0.078; under setting [1], inactive: ≤ 0; under setting [2], inactive: ≤ 0 and inactive: ≤ -0.002 and inactive: ≤ -0.027. For `Br.Br.CN(CCc1ccc(Cl)c(Cl)c1)CCN1CCCC1` [BD 1008 dihydrobromide], under setting [2], the “scaled lipid accumulation score” value is active: 0.882. Take `CC(C)CCCC(C)N` (stereo unspecified) [Octodrine]: the “scaled lipid accumulation score” value (library stock concentration: 15.5 mM) is inactive: 0.024. As for `CC(C)=CCC/C(C)=C/CC/C(C)=C/CC/C(C)=C/CC/C(C)=C/CC/C(C)=C/CC1=C(C)C(=O)c2ccccc2C1=O` [Vitamin K2], the “scaled lipid accumulation score” value is inactive: 0.008. As to `Cn1ccnc1` [1-Methylimidazole], the “scaled lipid accumulation score” value under setting [2] is inactive: 0.068.

Turning to `CC1(c2ccccc2)OC(C(=O)O)=CC1=O` (stereo unspecified) [Acifran], under setting [2], the “scaled lipid accumulation score” value was inactive: ≤ -0.006. Consider `Clc1ccc(C(Cn2ccnc2)OCc2ccc(Sc3ccccc3)cc2)c(Cl)c1` (stereo unspecified) [Fenticonazole Nitrate], for which the “scaled lipid accumulation score” value is inactive: 0.017 under setting [1] and inactive: 0.758 under setting [2]. As to `CC[C@H](C)C(=O)O[C@H]1C[C@@H](C)C=C2C=C[C@H](C)[C@H](CC[C@@H]3C[C@@H](O)CC(=O)O3)[C@H]21` [Lovastatin], the “scaled lipid accumulation score” value is inactive: 0.438. Also, the “scaled lipid accumulation score” value under setting [1] is inactive: 0.039. In addition, for the setting “library stock concentration: 4.9 mM”, the “scaled lipid accumulation score” value was inactive: 0.066 and inactive: ≤ 0. Turning to `Cc1c(C)c2c(c(C)c1O)CCC(C)(C(=O)O)O2` (stereo unspecified) [Trolox], the “scaled lipid accumulation score” value is inactive: 0.082.

With `COc1cccc2cc(-c3nc([C@H]4CC[C@H](C(=O)O)CC4)n4ncnc(N)c34)[nH]c12`, the “scaled lipid accumulation score” value (library stock concentration: 80 uM) is inactive: ≤ 0; the “scaled lipid accumulation score” value (library stock concentration: 400 uM) was inactive: 0.061; the “scaled lipid accumulation score” value (library stock concentration: 2 mM) was inactive: ≤ 0; the “scaled lipid accumulation score” value under setting [1] is inactive: 0.043; the “scaled lipid accumulation score” value under setting [2] is inactive: ≤ 0. As to `CS(=O)(=O)O.Cc1ccc(NC(=O)c2ccc(CN3CCN(C)CC3)cc2)cc1Nc1nccc(-c2cccnc2)n1`, under setting [2], the “scaled lipid accumulation score” value is active: 1.08.

As to `COC(=O)C(Cc1ccc(OCCn2c(=O)sc3cc(C(=O)c4ccccc4)ccc32)cc1)C(=O)OC`, the “scaled lipid accumulation score” value under setting [2] was inactive: ≤ 0. For the compound `O=C1CCC[C@@H]2[C@H]3CCC[N+]4([O-])CCC[C@@H](CN12)[C@@H]34` (stereo partly specified) [Oxymatrine], the “scaled lipid accumulation score” value reads like this: under setting [1], inactive: ≤ 0; under setting [2], inactive: 0.019.

Turning to `CC(=O)CCCCn1cnc2c1c(=O)n(C)c(=O)n2C`, under setting [2], the “scaled lipid accumulation score” value is inactive: ≤ 0.

`CCCCC/C=C\C/C=C\CCCCCCCCCC(=O)O` [Eicosadienoic acid (20:2 n-6)]: under setting [3], the “scaled lipid accumulation score” value was inactive: 0.016.

As for `CC(C)n1c(/C=C/C(O)CC(O)CC(=O)O)c(-c2ccc(F)cc2)c2ccccc21` (stereo unspecified) [Fluvastatin sodium salt], the “scaled lipid accumulation score” value was inactive: 0.403. Regarding `CC(C)n1c(/C=C/C(O)CC(O)CC(=O)O)c(-c2ccc(F)cc2)c2ccccc21` (stereo unspecified) [Fluvastatin Sodium], the “scaled lipid accumulation score” value reads like this: under setting [1], inactive: 0.188; under setting [2], inactive: 0.219.

For `CC(C)n1c(/C=C/C(O)CC(O)CC(=O)O)c(-c2ccc(F)cc2)c2ccccc21` (stereo unspecified) [fluvastatin], under setting [2], the “scaled lipid accumulation score” value was inactive: 0.549. In the case of `CS(=O)(=O)O.N=C(N)SCCc1ccc(OCc2ccc([N+](=O)[O-])cc2)cc1` [KB-R7943 mesylate], the “scaled lipid accumulation score” value under setting [2] is active: 0.99. Consider `O=c1ccn([C@@H]2O[C@H](CO)[C@@H](O)[C@H]2O)c(=O)[nH]1` [Uridine], for which the “scaled lipid accumulation score” value reads like this: under setting [1], inactive: ≤ 0; under setting [2], inactive: ≤ 0. On to `CCCCCC(O)c1cccc(OCc2ccc3ccccc3n2)c1` (stereo unspecified), for which, under setting [3], the “scaled lipid accumulation score” value was inactive: ≤ 0 and inactive: 0.006. Regarding `COc1ccc2[nH]c(-c3ccccc3)c(CCNC(C)=O)c2c1` [2-Phenylmelatonin], under setting [2], the “scaled lipid accumulation score” value was inactive: 0.014. For the compound `CC(C)(C)c1ccc(C(=O)CCCN2CCC(OC(c3ccccc3)c3ccccc3)CC2)cc1` [Ebastine], under setting [2], the “scaled lipid accumulation score” value was inactive: ≤ -0.07. As for `CCCCNc1cc(C(=O)O)cc(S(N)(=O)=O)c1Oc1ccccc1` [Bumetanide], the “scaled lipid accumulation score” value was inactive: ≤ 0. In addition, the “scaled lipid accumulation score” value under setting [1] is inactive: ≤ 0. In addition, the “scaled lipid accumulation score” value under setting [2] was inactive: ≤ 0 and inactive: 0.26 and inactive: 0.178. In the case of `Fc1ccc2[nH]c(CN3CCN(c4ccccn4)CC3)cc2c1`, the “scaled lipid accumulation score” value under setting [2] is inactive: ≤ 0. For the compound `CNC(=O)c1c(I)c(C(=O)NCC(=O)Nc2c(I)c(C(=O)O)c(I)c(C(=O)NCCO)c2I)c(I)c(N(C)C(C)=O)c1I` [Ioxaglic acid], the “scaled lipid accumulation score” value is inactive: 0.014.

Turning to `C[C@H](Cn1cnc2c(N)ncnc21)OCP(=O)(O)O`, the “scaled lipid accumulation score” value under setting [2] is inactive: ≤ 0. Turning to `O=c1ncc(F)c[nH]1` [5-fluoro-2-pyrimidone], the “scaled lipid accumulation score” value under setting [2] is inactive: ≤ 0. The same measure, in the same setting: the value for `CC1(C)[C@H]2CC[C@@]1(C)C(=O)C2` [1r-camphor] was inactive: ≤ 0. In the case of `CC(=O)Oc1ccccc1C(=O)Oc1ccccc1C(=O)O` [Acetylsalicylsalicylic acid], the “scaled lipid accumulation score” value is inactive: ≤ 0. For `O=C1NCCc2[nH]c(-c3ccnc(-c4cnc5ccccc5c4)c3)cc21` [MK-2 Inhibitor III], the “scaled lipid accumulation score” value under setting [1] was inactive: ≤ 0. For `CNC[C@H](O)[C@@H](O)[C@H](O)[C@H](O)CO` [Meglumine], the “scaled lipid accumulation score” value was inactive: ≤ 0. In addition, under setting [1], the “scaled lipid accumulation score” value was inactive: ≤ 0. The “scaled lipid accumulation score” value under setting [2] is inactive: ≤ 0. Take `Nc1ccc(S(=O)(=O)Nc2cnc3ccccc3n2)cc1` [Sulfaquinoxaline sodium salt]: the “scaled lipid accumulation score” value was inactive: ≤ 0. On to `Nc1ccc(S(=O)(=O)Nc2cnc3ccccc3n2)cc1` [Sulfaquinoxaline sodium], for which the “scaled lipid accumulation score” value (library stock concentration: 6.2 mM) is inactive: 0.015. Take `NCCCC(O)(P(=O)(O)O)P(=O)(O)O` [Alendronate]: the “scaled lipid accumulation score” value (library stock concentration: 8.1 mM) is inactive: 0.031.

Regarding `NCCCC(O)(P(=O)(O)O)P(=O)(O)O` [Alendronate sodium], the “scaled lipid accumulation score” value (library stock concentration: 6.1 mM) was inactive: ≤ 0.

For the origin of these results see the supplement of paper PMC9135407.
